Measurements: paper PMC4336329 (PLoS ONE, 2015)
In all, about 310,000 compounds went through this assay and about 2,200 (0.71%) showed an effect of 50% or more. The effect is printed as a negative number. This is one part of the list.

target: human ether-à-go-go-related gene (hERG) potassium channel (human, UniProt Q12809); assay: primary screen, population patch clamp on CHO cells stably expressing hERG
Sequence (Q12809 whole entry, looked up): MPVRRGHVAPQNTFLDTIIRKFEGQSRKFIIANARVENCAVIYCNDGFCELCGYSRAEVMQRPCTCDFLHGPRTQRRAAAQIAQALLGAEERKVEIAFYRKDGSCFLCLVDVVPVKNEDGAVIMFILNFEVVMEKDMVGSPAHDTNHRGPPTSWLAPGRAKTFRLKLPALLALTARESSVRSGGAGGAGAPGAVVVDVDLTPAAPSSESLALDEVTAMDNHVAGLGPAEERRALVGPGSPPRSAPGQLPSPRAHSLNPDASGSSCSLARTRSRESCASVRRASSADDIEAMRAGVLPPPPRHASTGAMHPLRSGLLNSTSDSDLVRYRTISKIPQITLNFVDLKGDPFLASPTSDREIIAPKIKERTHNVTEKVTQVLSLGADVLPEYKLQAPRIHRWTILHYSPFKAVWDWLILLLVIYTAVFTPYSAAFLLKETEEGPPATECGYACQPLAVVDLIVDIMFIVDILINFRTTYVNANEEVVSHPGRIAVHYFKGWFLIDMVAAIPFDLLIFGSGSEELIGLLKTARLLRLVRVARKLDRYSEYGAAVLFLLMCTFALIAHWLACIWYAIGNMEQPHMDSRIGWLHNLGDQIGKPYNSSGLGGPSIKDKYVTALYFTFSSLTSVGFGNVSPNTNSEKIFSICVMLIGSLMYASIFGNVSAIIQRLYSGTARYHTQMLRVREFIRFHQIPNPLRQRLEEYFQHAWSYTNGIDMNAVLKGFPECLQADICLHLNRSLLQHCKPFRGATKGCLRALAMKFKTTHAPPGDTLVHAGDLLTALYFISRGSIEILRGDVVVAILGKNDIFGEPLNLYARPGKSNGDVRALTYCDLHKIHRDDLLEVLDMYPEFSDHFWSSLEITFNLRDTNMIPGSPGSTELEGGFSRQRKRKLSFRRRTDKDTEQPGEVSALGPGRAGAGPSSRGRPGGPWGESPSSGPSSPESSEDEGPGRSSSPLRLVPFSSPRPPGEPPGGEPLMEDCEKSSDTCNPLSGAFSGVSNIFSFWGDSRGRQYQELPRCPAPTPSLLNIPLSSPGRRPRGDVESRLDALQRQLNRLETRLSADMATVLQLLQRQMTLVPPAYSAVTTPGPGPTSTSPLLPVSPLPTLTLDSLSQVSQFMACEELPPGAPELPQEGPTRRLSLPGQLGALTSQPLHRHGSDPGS

SMILES	hERG current change (%, negative = inhibition) at 1uM [%]
COc1cc(/C=C/C(=O)O)cc(S(=O)(=O)NCC2CCCO2)c1OC (stereo not shown)	10.1
Cc1ccc(Cl)c(OCC(=O)Nc2cccnc2)c1	7.71
Cc1nn(C(C)C(=O)Nc2ccc3c(c2)OCO3)c(C)c1[N+](=O)[O-] (stereo not shown)	-1.75
COc1cc(NC(=O)COC(=O)CO/N=C(\C)c2ccc3c(c2)OCO3)cc(OC)c1	15.6
CN(C)c1cc(N/N=C/c2ccccc2C(F)(F)F)nc(N(C)C)n1	1.88
COc1cccc(-n2c(Cc3cc(=O)[nH]c(=O)[nH]3)nnc2SCC(=O)NC2CCCC2)c1	11.9
O=C(c1ccncc1)N1CCN(S(=O)(=O)c2cc(C(F)(F)F)cc(C(F)(F)F)c2)CC1	0.128
COc1ccc(NC(=O)COC(=O)CCCOc2ccc(Cl)cc2Cl)cc1Cl	20.8
CC(C)=CCN1CCN(CCC2=C(C)CCCC2(C)C)CC1CCO (stereo not shown)	-10.9
O=C(Nc1ccc(-c2nnn(CC(=O)N3CCN(C(=O)c4ccco4)CC3)n2)cc1)c1ccc(F)cc1	8.12
Cc1cccc(CSC2=NCCN2C(=O)c2ccc(Br)o2)c1	6.86
CC(=O)Nc1ccc(OC(=O)N2CCCCC2)cc1	-1.64
CCCC(=O)C1=C(O)C(c2cccc(Oc3ccccc3)c2)CCC1=O (stereo not shown)	2.54
O=C(NCc1ccncc1)c1nc(-c2ccc(C(F)(F)F)cc2)no1	3.37
C=CCn1cc(C(=O)OC)c(=O)c2cc(S(=O)(=O)N3CCC(C)CC3)ccc21	-14.7
COc1ccc(NC(=O)COC(=O)CNC(=O)c2cc(OC)c(OC)c(OC)c2)cc1	11.5
CC1CCC(N2CCN(S(C)(=O)=O)CC2)CC1.O=C(O)C(=O)O (stereo not shown)	14.8
CCCCCCCCC(=O)Nc1cc(C)ccc1OC	9.02
COC(=O)C(C)(C)NC(=O)c1cccs1	5.48
NC(=O)C1CCCN(CCc2ccccc2)C1 (stereo not shown)	12.5
COc1ccccc1NC(=O)COC(=O)c1cc(C)nc2ccccc12	8.92
CCc1ccc(NS(=O)(=O)c2ccc3c(c2)CCN3C(=O)CCC(=O)O)cc1	8.06
CCCn1nnnc1NCc1cccc(OC)c1OCC	4.19

SMILES	hERG current change (%, negative = inhibition) at 1uM [%]
CS(=O)(=O)O.S=C=Nc1cccc(C2(N3CCCCC3)CCCCC2)c1	2.09
COc1ccc(CNC(=O)c2noc(C(C)C)c2[N+](=O)[O-])cc1	0.486
C/C(=N\NC(=O)CN1CCN(S(=O)(=O)c2ccc(C)cc2)CC1)c1ccncc1	-77.6
O=C(Cc1ccccc1)NNS(=O)(=O)c1ccccc1[N+](=O)[O-]	9.17
OCc1n[nH]c(CO)n1	-12.4
CCOc1ccc(S(=O)(=O)N2CCCCC2)cc1NC(=O)c1c(CC)noc1C	7.63
Cc1ccc(NC2=CC(=O)OC(C)C2)cc1 (stereo not shown)	12.2
O=C(CCCN1C(=O)CCC1=O)Nc1cccc(C(F)(F)F)c1	3.51
COc1cc(Cc2cc(N)nc(N)n2)cc(OC)c1OC	15.5
O=C(O)c1cnn2c1NC(c1ccc(F)cc1)CC2C(F)(F)F (stereo not shown)	0.527
CCOP(=O)(OCC)C(NC(=O)c1ccccc1)=C(Cl)Cl	5.7
O=C(COC(=O)CNC(=O)c1ccc(Cl)cc1)Nc1ncc(C(F)(F)F)cc1Cl	7.36
COc1cccc(OC)c1C1=NC(C)(C)CO1	13.6
COC(=O)c1cc(=O)n(CCc2ccc(OC)cc2)c(=Nc2ccc(F)c(Cl)c2)s1	1.69
O=C(Nc1ccc2ncccc2c1)Nc1ccc2ncccc2c1	13.5
O=C1/C(=C\c2cccnc2)CN(Cc2ccccc2)C/C1=C\c1cccnc1	1.76
COc1ccc(CCC(C)NCC(C)c2ccccc2)cc1 (stereo not shown)	-9.93
Br.Cc1nnc2n1N=C(c1ccccc1)CS2	11.3
Cn1c(=O)n(Cc2ccccc2Br)c2ccccc21	9.48
O=C(Nc1nc2ccccc2[nH]1)c1cc2ccccc2o1	-1.5
O=[N+]([O-])c1ccc(CN2CCSCC2)cc1	7.91
C=CCN(c1ccccc1)S(=O)(=O)c1cccc(C(=O)Nc2ccncc2)c1	-12
Cc1ccccc1C(=O)NCCCn1ccnc1	14.3

SMILES	hERG current change (%, negative = inhibition) at 1uM [%]
CC(C)(C)c1ccc(/C=N/Nc2cccc(C(=O)O)c2)cc1	19.3
COc1ccc(S(=O)(=O)N(Cc2cccnc2)Cc2cc3ccccc3[nH]c2=O)cc1	4.09
O=C(NC1CC1)C1=C[C@@H](c2ccc(Br)cc2)C[C@@H](OCc2ccc(CO)cc2)O1	-1.49
Cc1cc(C)n(-c2cc(N3CCN(S(=O)(=O)c4ccc5ccccc5c4)CC3)ccc2[N+](=O)[O-])n1	-2.43
CC1CC(=O)Nc2ccccc2N1C(=O)Nc1ccc(F)cc1 (stereo not shown)	9.77
CN(C)C(=O)N1CCNCC1.Cl	11.8
Cc1ccc(S(=O)(=O)N2CCN(C(=O)COc3ccc(-c4nnco4)cc3)CC2)cc1	12
c1ccc2sc(NC3=NCN(CC4CCCO4)CN3)nc2c1 (stereo not shown)	7.45
C#CCOCCOCCOCCNc1nc(N2CCN(C(=O)[C@H]([C@@H](C)CC)n3cc([C@@H](N)CO)nn3)CC2)nc(N2CCN(C(=O)[C@H]([C@@H](C)CC)n3cc([C@@H](N)CC(C)C)nn3)CC2)n1.Cl	11.5
CC(C)[C@H](NC(=O)c1ccc(Cl)c([N+](=O)[O-])c1)C(=O)O	8.48
C(#CC1CCCCC1)c1ccc2c(c1)COc1c3ccccc3nn1-2	9.17
CC(NC(=O)Nc1ccc(Cl)cc1)c1ccc2c(c1)OCO2 (stereo not shown)	14.1
COc1cccc(/C=C2\SC(=S)N(CC3CCCO3)C2=O)c1 (stereo not shown)	10.9
CCc1ccc(NC(=O)CSc2nnc(-c3cccs3)n2CC)cc1	-25.7
CCC(C)NC(=O)C1CCN(c2nc(OC)nc(OC)n2)CC1 (stereo not shown)	0.0913
O=C(CSc1ccc(-c2cccs2)nn1)Nc1ccccc1	-17.8
Nn1cnn(Cc2ccccc2)c1=S	11.6
N#Cc1nc(-c2cccs2)oc1NCCc1ccccc1	14.3
CCc1nnc(NS(=O)(=O)c2ccc(NC(=O)/C=C/c3ccc(F)cc3)cc2)s1	5.35
O=[N+]([O-])c1ccc(C2=Nn3cnnc3SC2)cc1	-7.44
Cc1oc(C(=O)O)cc1COc1ccccc1Cl	6.57
CCN(CCCNC(=O)C1CCN(S(=O)(=O)CC)CC1)c1cccc(C)c1	-8.2
COc1ccc(CNC(=O)COC(=O)CN2C(=O)C(C)Oc3ccc(C)cc32)cc1 (stereo not shown)	9.75

SMILES	hERG current change (%, negative = inhibition) at 1uM [%]
CCN(CC)c1ccc(/C=N\N2CCN(Cc3ccc(C)cc3)CC2)cc1	12.9
Cn1c(CNC(=O)CNS(=O)(=O)c2ccc(Br)cc2)cc(=O)n(C)c1=O	12.6
Cc1cc(N2C(=O)C(=O)/C(=C(/O)c3ccccc3)C2c2cccc(Br)c2)no1 (stereo not shown)	3.48
COc1ccc(CN(CC(=O)NC2CCCCC2)C(=O)CCC(=O)Nc2nccs2)cc1	12.8
Cc1ccc(CN2CC(=O)N3[C@H]4c5cc(Cl)ccc5OC[C@@H]4[C@H](c4ccccc4)[C@]3(C)C2=O)cc1	8.54
Cc1cccc(Cn2nc(C(C)(C)C)cc2C(=O)Nc2ccc(F)cc2)c1	12
CCCSc1nsc(N)n1	-3.27
Nc1nnc(Cc2ccc(Cl)cc2Cl)s1	10.5
CCCCOc1ccc(/C=c2\sc3ncnn3c2=O)cc1	0.729
O/N=C/c1ccn(-c2ccc(Br)cc2)c1	13.6
Cc1ccccc1NC(=O)CCOc1ccccc1	10.9
CN1C(=O)CC(Sc2ccccc2C(=O)O)C1=O (stereo not shown)	-11.6
Clc1cccc(N/N=C/c2ccc(N3CCOCC3)s2)c1	9
Cn1c(CNC(=O)c2ccccc2F)nnc1SCC(=O)NCc1ccccc1	11
N#Cc1c(N)sc(=S)c2c1CCCCC2	5.71
CCn1c(SCC(=O)N/N=C/c2c[nH]c3ccccc23)nnc1-c1ccc(C)cc1	9.39
Cc1ccc(OCC(=O)N2CCc3ccccc3C2)cc1	13.1
OC(CN1CCN(c2ccccc2)CC1)c1ccc2c(c1)CCN2 (stereo not shown)	0.0556
COCCN(CCOC)c1nc(-c2ccc([N+](=O)[O-])cc2)nc2ccccc12	-7.36
O=C(COc1cc(O)c2c(=O)c3ccccc3oc2c1)OCc1ccccc1	10.6
COCCOC(=O)c1c(C)n(C)c2ccc(OC(=O)c3cccs3)cc12	16.2
Cc1ccc(-c2c(C)n([O-])c3c([n+]2=O)CCCC3)o1	10.2
